According to the supplement of paper PMC11417369:
This is one part of the list.

system: PfAP2-HC AP2 domain (GST-tagged); experiment: gcPBM binding intensity (ln(normalized median fluorescence intensity)); higher = stronger DNA binding
Method in brief: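 An Agilent 4 × 180k array of primer-extended double-stranded 36-bp intergenic genomic probes, with negative controls, was incubated for 1 h with GST-tagged P. falciparum DNA-binding domains expressed in E. coli. Alexa488 anti-GST antibody detected bound protein, scanned at 488 nm. Binding intensity is the highest Masliner-normalised natural-log median intensity across replicate spots of either probe orientation.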

Sequence	gcPBM binding intensity (ln)
GAACCATTTTTTGGTATACACACGTAATTATAGAAT [CACACA_site1851]	9.67
AGATCATAATATTATACACACATTATGTATATGTAA [CACACA_site1490]	9.77
TGAATACATAAATATAGTACATATATATATATATTA [XGTACX_site8756]	9.65
TATAATATTATTTGAAGTACAAACATAAAAGAATTA [XGTACX_site3161]	9.62
TATATACATACATATTGTACTTATAAAGATTAATTT [XGTACX_site2203]	9.62
ATATAAGTATATCTATGTACATACAATATAAATGTA [XGTACX_site2153]	9.8
TTTTAAAAAAAAAAAAAATAAGATAAAATTAAATAA [GTGCAC_negctrl_site367]	9.19
ATAAAAAATATCACATAAAATAAAAAAAGAAAGGAT [XGTACX_negctrl_site294]	9.86
TATATATATACAGTAGTGCATATATTTAAAATATAT [GTGCAC_site9999]	9.68
TATATATAAAAATATACACACTGTATTATTGTAATA [CACACA_site5959]	9.7
ATATATAAAAATAAATGTACATATTCATATGATGAT [XGTACX_site3411]	9.74
GACAATTATATGTAGGTGCATATACAAATTTTTTAA	9.61
ATAGGATATTATTCCTGTACATATATATATATATAT [XGTACX_site2108]	9.72
ATCAAAAGAAGACACACACACATACCTATAAATATA [CACACA_site7736]	10.8
AATAGTTATTCCAGGTGTACATAACATATAATTTAC [XGTACX_site1340]	9.68
TTATTATTATTACTTACGCACACTTTTTTTTTTATT [CACACA_site411]	9.96
ATATATATATATATATGTACATACAATTATATTCTC [XGTACX_site1133]	9.65
AATCTTCTTAATTGTAGTACACAATTTATAAACAAA [XGTACX_site8706]	9.45
AAAAATCATTTAAGAACACACAAATATTTCCATTAA [CACACA_site1488]	9.7
TACATAAATTTTAATACATGCAAATAAAATATATAA [TGCATGCA_site131]	9.58
ATAACGAACACTATTACACACATACATACATATGTA [CACACA_site5092]	9.94
AAAAAAAAAAAAAACACACACACATAGACCTCCAAT [CACACA_site3563]	11.3
TTTTTTGTTACAACAGTGCAAAAAAACCTTAATGTT	9.44

Sequence	gcPBM binding intensity (ln)
TACATACATACATACACACACATATAGATTTATATA [CACACA_site6999]	10.1
TATATAAAAATATACACACACAAATGTATATATATA [CACACA_site220]	10.1
ATATATATATATATATCACACATTAATAATATATAT [CACACA_site5081]	9.57
AAAACATAACATTGTTGTACTACTAATAAAATAAGT [XGTACX_site6149]	9.77
ATAATTTTGTATAATTGTACATTATTTTAAATAAAT [XGTACX_site7952]	9.56
TCTTTATTATTCGCCACACACATATAAATATAAATA [CACACA_site7441]	9.86
TTTTTTTTTTTTTTTAAACACACGGTGTGAAAATTA [CACACA_site3818]	9.43
ATCAATCATGGTTTTACACACACATGCATGTGAAAA [CACACA_site1350]	9.86
TTTTCTGTGTTTACATGTACGAAAGATTAATATTAT [XGTACX_site5214]	9.68
ATTTGATAGACACATGCACACATGCAATACTTTATT [CACACA_site5633]	10.1
TTATCATATCATGGAAGTACAAATAAAATATATAAC [XGTACX_site1608]	9.72
AATGATATATTTAAATGTACACATGAAATATAATAT [XGTACX_site2678]	9.68
TTATATTTGATAGTTTGTACATATAATTATTATCAT [XGTACX_site5676]	9.8
TATCTTCAAGTATGTACACACTATATATAATAAAAT [CACACA_site5368]	9.79
ATAATTACATTCCATACACACATATATTTAAAGGTT [CACACA_site7403]	9.81
TTCTTGTTCCTGAAAGTGCATATAACAAAAATAACA [GTGCAC_site9635]	9.46
TATAAGTGCCGTTATACACACGTTATATAAATATTA [CACACA_site4401]	9.59
ATAATTATATTTAGTGGTACTACTTTTGATAATTAG [XGTACX_site6562]	9.33
TGTAATATATGTATTGCACACCTATAACCATTATTT [CACACA_site8422]	9.89
GATGAATAATATGTATGTACATATGCATTATGATGT [XGTACX_site7655]	9.8
ATATGCACTTTTTGCACACGTATGAATAACAAAATA [CACACA_site1810]	9.93
ACATATAGATAAATATGTACATATATATATATATAT [XGTACX_site1806]	9.63
AAATGTGAAAAAGAGTGTACCCGACTTGAAATTAAG [XGTACX_site8621]	9.74

Sequence	gcPBM binding intensity (ln)
AGTAGAATATCCCCTACACACCCAAGTAATTTACAA [CACACA_site6708]	10.4
AATTAAAAGTGAAGAGTGCATAGAATTTTTTACTTT [GTGCAC_site9973]	9.64
TTTAATTTTCAATGGCGTACATATAAAATATTATAT [XGTACX_site1672]	9.62
ACAAAAAGTTACATACGTACGTAAAATTGTAATAAA [XGTACX_site2358]	9.91
ATAATACCATTAATTTGTACATATATATTATATATA [XGTACX_site4345]	9.68
ATTATATTATATATATGTACATATATATATCATAAT [XGTACX_site1]	9.52
TTTTGGATGAACAGTACATGCAAAAACAAACTTGTA [TGCATGCA_site16]	9.47
TGCTTCTTTTAAAAACATGTTTGTATTCATTTTATA [CACACA_negctrl_site1627]	9.85
ATTTCTCTATCGTAATGTACAAAAAAAAGGAAAAAA [XGTACX_site1323]	9.53
ACATATAAATGATATGTACACACATTTATATATATA [CACACA_site9152]	9.83
TTTTTAACGTATAAGGTGCACTGTATATGGTACTCA	9.54
TCTTCTTTAAAAGAGGTGCACTATATAATGTGATTA [GTGCAC_site9431]	9.45
TAATTATACTTATTTTGTACGCAATATTTAAAATAA [XGTACX_site8516]	9.48
TATATATATATATATTGTACACATACATGTAGTTTT [XGTACX_site4848]	10.3
TATATATATATATAGGTGCAATATTGAAAAAATATC [GTGCAC_site9535]	10.1
AAAGTAATATATAATACATGCGTAAATATTTATGTA [TGCATGCA_site254]	9.84
GACAAATGAAAAGATTGTACATGTATTTGAAGATTA [XGTACX_site6775]	9.69
TGATTATATATAAATGTATGCATGTCTATTATGCTA [TGCATGCA_site543]	9.56
TACACAAAAATTTATACACACACATATATAATATAT [CACACA_site7931]	10.1
TCTTTTATATTTTTTTGTACACAAGAATAAAGAAAA [XGTACX_site3394]	9.31
ATCTTTTATATATTCACACATAAAATTATACAGATA [CACACA_site5277]	9.46
GAGTTTTAATGTAATAGTACTTTAATTATTATATAT [XGTACX_site4527]	9.7
TTTTTTTTTTATTCATGTACGTATTTAAATAATTCT [XGTACX_site2651]	9.64

Sequence	gcPBM binding intensity (ln)
AAAAAAAAAAAAAACACACAAACAAATGAATAAATA [CACACA_site3300]	9.84
ATATATATATATAATGCACACATTATAAATTATGTA [CACACA_site5802]	9.72
AATAAATAAATAAATATATATATATATATATATATA [CACACA_negctrl_site708]	9.54
TATTTTTATTTTACATTATTTGTTTATAATTCTTAA [CACACA_negctrl_site1358]	9.59
TGTATATACATAAAGTGTACGTATATTTATATATAT [XGTACX_site4320]	9.62
TATATATATAAGGATAGTACATATATTTATATGATT [XGTACX_site4954]	9.61
AAAATTATAAAATGGGCACACATGAATATTGTAGTA [CACACA_site5261]	10.1
ATGAAATTTATATCATGTACATACAAGAGAAAAAAA [XGTACX_site3326]	9.75
GTATAATAAATGATAGCACACATATGTACTTATATA [CACACA_site8188]	9.77
TTATATATTTCTATTGCACACTATATTTTATGAAGA [CACACA_site2910]	9.68
GACTACACACAAGGGTGTACATATATATTATATATA [XGTACX_site2247]	9.75
TTAACTTATTTGTAAAGTACATTAATAAAAAGAAAA [XGTACX_site1588]	9.32
AGGTTATAATTGTTTTCACACATTTAAAAATGTTAT [CACACA_site5097]	9.7
TTTATTTTAAATTTACGTACATAATTAATCATATTT [XGTACX_site7529]	9.76
ATAAAAAATTAGGACTGTACATAATTTTTGTGATTT [XGTACX_site2857]	9.66
TAATGCAACATTTATGTGCACATAAATATTTTTTAA	9.52
AAAACACAATTTATTACACACATATATTATAGATTA [CACACA_site6780]	10.1
TTATAAAAATACAGTTAACACACATGTGTATATATA [CACACA_site9257]	9.82
AAAAAAAAAATATACACACACACATACCCATAAATA [CACACA_site5981]	10.7
GATCGCATGAAATGAACACACATAAAAAAAATATAC [CACACA_site4087]	9.9
AAAATAATCTTATGCACACCAAAAATTTATATAATC [CACACA_site1235]	9.76
